From PubChem BioAssay AID686979 (National Center for Advancing Translational Sciences (NCATS), 2013)
Values joined by “and” are separate entries in the source; they are usually repeats but may differ in a detail not shown here. Equal entries are not always repeated. Screen size: about 420,000 compounds; about 50,000 (12%) were called active. The inconclusive results got no clear call from the source; some entries with a clear call stand among them for comparison. The call rests on the fitted dose curve; in most records, active means well fitted inhibition curve with a large enough effect; inconclusive means small, poorly fitted or top-dose-only effect; inactive means flat fitted curve, though single readings scatter. A potency beside an inconclusive call is a rough fit, not a confirmed value.
On the % scale 0 is the no-effect control and ±100 the full control effect; potency means the concentration at half of the fitted maximal effect; tags describe the fitted curve by direction and shape.

Experiment: qHTS for Inhibitors of human tyrosyl-DNA phosphodiesterase 1 (TDP1): qHTS in cells in presence of CPT; further: nearly all actives have a fitted effect of over 55% in size
Conditions: chicken DT40 Tdp1-/-;hTDP1 cells + 20 nM CPT, ATP luminescence, 48 h; activity change, negative = growth inhibition: at 46.2 µM (top of the series) unless noted
Method in brief: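 Chicken DT40 Tdp1-/- cells stably complemented with human TDP1 were seeded at 400 cells/well in medium containing 20 nM camptothecin, exposed to pin-transferred compounds, and grown at 37 °C for at least 48 hr. Viability was read as ATP luminescence.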
For C[C@@H]1C[C@@H](O)[C@@]2(O)[C@]13CC(=O)OC[C@]2(C)[C@@](C)(O)C(=O)C3, the activity change, negative = growth inhibition was inactive: -22.2% [at 9.04 µM]. For CC(C)CNc1c2c(nc3ccccc13)CCC2, the Potency was inconclusive: 20.6 µM [inhibitor, single point]. With CCCCn1c(=O)c(C(=O)Nc2ccccn2)c(O)c2ccccc21 the Potency was active: 3.26 µM. For CC(C)(C)NS(=O)(=O)c1ccc(OCC(=O)N2CCN(Cc3ccccc3)CC2)cc1, the activity change, negative = growth inhibition was inconclusive: -31.8% [inhibitor]. With O=C(Nc1ccc(Cl)cc1)Nc1ccc(Cl)c(C(F)(F)F)c1 the Potency was active: 4.73 µM. With CCCCNC(=O)c1c(N)n(CCCOC)c2nc3ccccc3nc12 the Potency was inconclusive: 29.1 µM [inhibitor, single point]. For Cc1ccc(NC(=O)N(Cc2ccc3c(c2)OCO3)C2CCN(Cc3ccccc3)CC2)cc1C, the Potency was inconclusive: 10.3 µM [inhibitor, single point]. In the case of C=CC[C@H](CC(=O)N(CCO)Cc1ccccc1)C(=O)NC[C@H](OC(=O)[C@@H](CC=C)CC(=O)OC(C)(C)C)c1ccccc1, the Potency is reported as active: 20.6 µM. With COc1ccc(N2C(=O)/C(=C/c3ccco3)C(=O)NC2=S)cc1 the Potency was inconclusive: 18.4 µM [inhibitor, single point]. For CC(C)(C)C(=O)N1Cc2cc(-c3cccc(F)c3)ccc2-n2nncc2C1, the Potency was inconclusive: 25.9 µM [inhibitor, single point]. In the case of Cc1nnc2n1-c1sc(CCc3ccc(CC(C)C)cc3)cc1C(c1ccccc1Cl)=NC2C (stereo unspecified), the Potency is reported as inconclusive: 21.1 µM [inhibitor, partial curve, poor fit]. With COC(=O)C1=C(c2ccc(C(C)=O)cc2)C[C@@H]2CC[C@H]1N2C(=O)NCc1ccco1 the Potency was “inactive”. With Cc1nn(Cc2ccccc2)c(C)c1C=C1C(=O)NC(=O)NC1=O the Potency was “inactive”. For COC(=O)C1=C(c2ccc(OCc3ccccc3)cc2)C[C@@H]2CC[C@H]1N2C(=O)NCc1cccc(OC)c1, the Potency was active: 18.4 µM. In the case of Cc1cccc(C2=NCC(=O)N(CC(=O)NCc3ccco3)c3sc4c(c32)CCCC4)c1, the Potency is reported as inconclusive: 20.6 µM [inhibitor, single point]. With CN1CCN(c2ccc([N+](=O)[O-])c(SCCO)c2)CC1 the Potency was “inactive”. With Cc1ccc2nc(N3CCC(C(=O)N4CCC5(CC4)OCCO5)CC3)sc2c1 the Potency was inconclusive: 8.2 µM [inhibitor, partial curve]. In the case of CC(C)=CC1C(C(=O)OCc2cccc(Oc3ccccc3)c2)C1(C)C (stereo unspecified), the Potency is reported as “inactive”. With C=CCC1(Cc2ccsc2)C(=O)NC(=O)NC1=O the Potency was “inactive”. For Oc1ccccc1-[n+]1c(-c2ccccc2)cc(-c2ccccc2)cc1-c1ccccc1, the Potency was active: 1.3 µM. For CC/C(=N\NC(=O)c1ccccc1O)c1c(O)n(C2CCCCC2)c(=O)[nH]c1=O, the Potency was “inactive”. With CN(CCC(N)CC(=O)NC1C=CC(n2ccc(N)nc2=O)OC1C(=O)O)C(=N)N (stereo unspecified) the Potency was inconclusive: 29.1 µM [inhibitor, single point]. In the case of C[C@@]1([C@@H](NP(=O)(c2ccccc2)c2ccccc2)c2ccccc2)C[C@H]1CCO, the Potency is reported as active: 9.2 µM. For COC(=O)c1ccccc1C(=O)c1ccc(OCCN2CCCCC2)cc1, the Potency was inconclusive: 10.6 µM [inhibitor, partial curve]. For Cc1cc(OCC(=O)N2CCN(CCc3ccncc3)CC2)ccc1Cl, the Potency was inconclusive: 20.6 µM [inhibitor, single point]. With O=C(COc1ccc(Cl)cc1)N1CCN(C/C=C/c2ccccc2)CC1 the Potency was inconclusive: 29.1 µM [inhibitor, single point]. With COCCNC(=O)N1[C@H]2CC[C@@H]1C(C(=O)OC)=C(c1ccc(OC)c(OC)c1)C2 the Potency was “inactive”. In the case of OCC1CN1C1CCCCC1 (stereo unspecified), the Potency is reported as inconclusive: 29.1 µM [inhibitor, single point]. With COc1ccc(C(c2nnnn2C2CCCCC2)N2CCC3(CC2)C(=O)NCN3c2ccccc2)cc1 (stereo unspecified) the Potency was inconclusive: 25.9 µM [inhibitor, single point]. With Cc1ccc2oc(=O)c(-c3nc4ccc(C)cc4[nH]3)cc2c1 the Potency was inconclusive: 7.31 µM [inhibitor, partial curve, poor fit]. With CSc1ccc(/C=C/c2nc3ccccc3c(=O)n2-c2cccc(Cl)c2C)cc1 the Potency was inconclusive: 14.6 µM [inhibitor, partial curve]. With Cc1ncc2n1-c1ccc(Cl)cc1C(c1ccccc1F)=NC2 the Potency was inconclusive: 29.9 µM [inhibitor, single point] and inconclusive: 25.9 µM [inhibitor, single point]. With O=C(O)c1cc(Oc2ccc(C(F)(F)F)cc2Cl)ccc1[N+](=O)[O-] the Potency was “inactive”. For COC(=O)C1=C(c2ccc(OC)c(OC)c2)C[C@@H]2CC[C@H]1N2C(=O)NC1CC1, the Potency was inconclusive: 29.1 µM [inhibitor, single point]. With O=c1[nH]c(=O)n(C2CCCCC2)c(O)c1/C=N/N1CCCCC1c1cccnc1 (stereo unspecified) the Potency was inconclusive: 29.1 µM [inhibitor, single point]. With Cc1ccc(C(=O)Nc2nc3ccccc3[nH]2)cc1 the Potency was inconclusive: 20.6 µM [inhibitor, single point]. For CCOc1cc2c(cc1OCC)-n1cccc1C(c1ccc(F)c(OC)c1)NC2 (stereo unspecified), the Potency was inconclusive: 18.4 µM [inhibitor, single point]. With CN1CCN(c2ccc(N)cc2Cl)CC1 the Potency was inconclusive: 18.4 µM [inhibitor, single point]. For CC(CC(C)(C)N1CC1)=NO, the Potency was active: 2.91 µM. With CC1=C2[C@@H]3OC(=O)[C@H](C)C3CC[C@@]2(C)C=CC1=O (stereo partly specified) the Potency was “inactive”. With Cc1ccc(C(C#N)=Cc2ccc3c(c2)OCO3)cc1 the Potency was inconclusive: 29.1 µM [inhibitor, single point]. With CCCCCOc1ccc(C)cc1CN(CCCl)CCCl the Potency was active: 16.4 µM. In the case of C[n+]1c2cc(N)ccc2cc2ccc(N)cc21, the Potency is reported as active: 2.06 µM and active: 3.66 µM. With CCOc1ccc(CN(CCc2ccc3c(c2)OCO3)Cc2cc(OC)ccc2O)cc1 the Potency was inconclusive: 25.9 µM [inhibitor, single point]. With COc1ccc(/C=C2/C(=O)NC(=O)N(c3ccc(C)c(C)c3)C2=O)cc1CN1C(=O)c2ccccc2C1=O the Potency was inconclusive: 29.1 µM [inhibitor, single point]. In the case of CCOC(=O)C(O)(c1ccc(N(CC)S(=O)(=O)c2ccccc2)cc1)C(F)(F)F (stereo unspecified), the Potency is reported as inconclusive: 20.6 µM [inhibitor, partial curve]. In the case of COc1cc2c(cc1OC)C(C(=O)N(C)C1CCCCC1)C1CCCCN1C2=O (stereo unspecified), the Potency is reported as “inactive”. With CN=C1CN(O)C(c2ccccc2)=c2cc(Cl)ccc2=N1 the Potency was inconclusive: 16.8 µM [inhibitor, partial curve, poor fit]. For O=C1NC(=O)N(c2ccccc2)C(=O)/C1=C/c1ccc(Sc2ccccc2)o1, the Potency was inconclusive: 22.4 µM [inhibitor, single point]. For CCCCCn1c(=O)c(C(=O)Nc2cnccn2)c(O)c2ccccc21, the Potency was active: 4.11 µM. In the case of CC12CC1(C)C(=O)N(c1cc(Cl)cc(Cl)c1)C2=O (stereo unspecified), the Potency is reported as “inactive”. For CC[C@]1(O)CC(O[C@@H]2CC(N(C)C)C(O)C(C)O2)c2c(cc3c(c2O)C(=O)c2c(O)ccc(O)c2C3=O)C1C(=O)OC (stereo partly specified), the Potency was active: 1.46 µM. With CCCCn1c(O)c(C(CC)=Nc2ccc(OCC)cc2)c(=O)[nH]c1=O the Potency was active: 18.4 µM. For O=[N+]([O-])c1ccc2c(c1)Cc1cc(O)ccc1-2, the Potency was inconclusive: 29.1 µM [inhibitor, single point]. In the case of O=C(CSc1nc2c([nH]c3ccccc32)c(=O)n1-c1ccccc1)c1ccccc1, the Potency is reported as inconclusive: 16.4 µM [inhibitor, single point]. For COc1ccc(CNCCc2ccccc2F)c(OC)c1C, the Potency was active: 14.6 µM. With COc1ccc(CNC(=O)/C=C/c2ccc3[nH]cc(CCN(C)C)c3c2)cc1 the Potency was “inactive”. In the case of CCc1ccc(-n2nc(C)c3c(C(=O)NCCc4ccc(OC)c(OC)c4)cc(C)nc32)cc1, the Potency is reported as active: 18.4 µM. For O=c1[nH]c2ccccc2n1C1CCN(C(c2nnnn2C2CCCC2)C2CC2)CC1 (stereo unspecified), the Potency was inconclusive: 23.1 µM [inhibitor, single point]. For COc1ccc2c(c1)c(C(=O)O)c(C)n2CC(C)C, the Potency was “inactive”. With C[C@]12[C@H](O)CC3C(CC[C@@H]4C[C@@H](O)CC[C@]34C)[C@@]1(O)CC[C@@H]2C1=CC(=O)OC1 (stereo partly specified) the Potency was inconclusive: 37.6 µM [inhibitor, single point]. In the case of COC(=O)c1nc(-c2ccc3c(n2)C(=O)C(N)=C(OC)C3=O)c(N)c(-c2ccc(OC)c(OC)c2O)c1C, the Potency is reported as active: 0.461 µM. For c1cncc(CNC2=NCCC2)c1, the Potency was “inactive”. In the case of CO/C=C(/C(=O)OC)c1ccccc1Oc1cc(Oc2ccccc2C#N)ncn1, the Potency is reported as active: 0.243 µM. For CCOc1cccc(=NC2CCCCC2)c2c(C)[nH]c(C)c12, the Potency was active: 5.8 µM. In the case of COc1cccc(C2(C#N)CCN(C)CC2)c1, the Potency is reported as “inactive”. In the case of CC12CCC3C(CC=C4CC5(CCC43C)OCCO5)C1CCC2=O (stereo unspecified), the Potency is reported as inconclusive: 18.4 µM [inhibitor, single point]. For CCCCC(=O)N/N=C/c1c(O)n(CC)c(=S)n(CC)c1=O, the Potency was active: 18.4 µM. For CCn1nc(/C=C/c2ccccc2)nc2c(=O)n(C)c(=O)nc1-2, the Potency was active: 1.64 µM. With Cc1ccccc1-c1ccc2c(c1)C1c3c(-c4ccccc4)nnn3-c3ccccc3C(=O)N1CC2 (stereo unspecified) the Potency was active: 20.6 µM. With COc1cc(CN2CCc3nc(N4CCN(c5ncccn5)CC4)ncc3C2)cc(OC)c1OC the Potency was active: 8.2 µM.
